In PubChem BioAssay AID1794842 (National Center for Advancing Translational Sciences (NCATS), 2023):
Among all 2,800 compounds or so, fewer than 10 were called active. Calls come from the whole dose curve; as a rule, active = well fitted curve in the direction sought with a large enough effect; inconclusive = small, poorly fitted or top-dose-only effect, or another doubt; inactive = no such curve, though single readings can be large or run the other way. This is one part of the list.

Biological target: Metallo-beta-lactamase type 2 (Klebsiella pneumoniae) (UniProt C7C422)
Sequence of UniProt C7C422 (C7C422 whole entry, looked up): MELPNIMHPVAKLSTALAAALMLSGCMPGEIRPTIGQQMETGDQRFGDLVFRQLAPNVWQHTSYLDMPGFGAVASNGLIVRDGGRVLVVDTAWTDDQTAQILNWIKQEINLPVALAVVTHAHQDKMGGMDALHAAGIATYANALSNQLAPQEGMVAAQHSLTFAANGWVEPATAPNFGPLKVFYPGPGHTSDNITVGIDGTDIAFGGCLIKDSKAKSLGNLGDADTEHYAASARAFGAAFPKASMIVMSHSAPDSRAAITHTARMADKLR
Test: qHTS to identify inhibitors of the New Delhi Metallo-beta-lactamase (NDM): Meropenem screen against the machine-based learning selections. Note: % of control where 0% means no effect.
Settings: Purified NDM-1, meropenem hydrolysis, absorbance 300 nm; at 38.4 µM (top of the series) unless noted
Outline: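 Hydrolysis by 2 nM NDM-1 was followed by absorbance after >30 min compound preincubation in HEPES pH 7.0 buffer with 1 uM Zn2SO4. For nitrocefin (16.7 uM, 15 min, 485 nm) and meropenem (50 uM, 30 min, 300 nm), each substrate ran on separate plates.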

Activity change, negative = inhibition, inactive:
N[C@@H](Cc1cnc[nH]1)C(=O)NCc1cccnc1Oc1ccc(F)cc1F 11.1%
Cc1cnc(C)c(N2CCN(C(=O)CCCc3c[nH]c4ccccc34)CC2)n1 5.45%
CC(C)c1nc2c(c(-c3ccc(O)cc3)n1)CN(C(=O)C1CC1)CC2 8.76% [at 57.5 µM]
COCc1cn(C[C@H]2C[C@@H](NS(C)(=O)=O)[C@H](O)[C@@H]2O)nn1 47% [at 57.5 µM]
CCCNC(=O)N(C1CCOCC1)C1CCN(C(=O)c2cccc(C(F)(F)F)c2)CC1 -0.606%
CC(C)Cc1cn(CC2CCCN(C(=O)c3ccc4c(c3)CCO4)C2)nn1 (stereo not given) 0.617%
CCc1nncn1C1CCN(S(=O)(=O)c2ccc(C)cc2C)CC1 0.453%
CCOCC(=O)N1CCC(N2CC3CC(C2)[C@H]2CCCC(=O)N2C3)CC1 (stereo not given in full) -2.05%
CC(=O)NC1(C)CCN(Cc2cccc(-c3cccc4ncccc34)c2)C1 (stereo not given) 0.0467% [at 57.5 µM]
CNC(=O)C(C)(C)N1CCC[C@H]1C(=O)NCc1ccc(OC)cc1 -1.03% [at 57.5 µM]
CNC(=O)[C@@H](c1ccc(Cl)cc1)N1CCC[C@H]1C(=O)N1CCCC1 58.2% [at 57.5 µM]
COc1ccc2c(c1)C(NC(=O)c1cn(CCN)nn1)CC(C)(C)O2 (stereo not given) -0.245%
Cc1ccc(NC(=O)[C@@H]2CNC[C@H](C(=O)NCc3ccccn3)C2)cn1 49.3%
COc1ccc(C(=O)NC[C@@H]2C=C(C)[C@H](Cc3nnc(-c4ccncc4)o3)C[C@H]2C(C)C)cc1 3.43%
COc1ccccc1-c1nnc([C@H]2CCN(Cc3cccnc3)C2)o1 8.65% [at 57.5 µM]
COc1nc(C)c(C(=O)N2CCC(c3[nH]ncc3-c3ccccc3)CC2)s1 3.13%
CN1CCOc2c(C(=O)NCCC(N)=O)cc(-c3ccccc3O)cc21 -2.18% [at 57.5 µM]
CN(Cc1ccccc1)Cc1cc(CC2(NCc3ccc(OC(F)(F)F)cc3)COC2)no1 0.859%
CC(C)CN1CCC(c2nc3ccc(F)cc3c(=O)[nH]2)CC1 -0.658%
CCCNC(=O)N(C1CCOCC1)C1CCN(C(=O)Nc2c(F)cccc2F)CC1 -4.65%
O=S(=O)(c1cc(F)ccc1F)N1CCCC1c1nncn1Cc1ccncc1 (stereo not given) 6.9%
COCCNC(=O)Cc1c[nH]c2ncc(-c3ccccc3)cc12 6.33% [at 57.5 µM]
O=c1cc(-c2ccccn2)oc2c(-c3ccc(CO)cc3)nccc12 12.7% [at 57.5 µM]
CC(=O)N1CCN(C(=O)C[C@@H]2c3nc(NC(=O)C4CCCCC4)sc3C[C@@H]3[C@](C)(CO)[C@H](O)CC[C@]32C)CC1 1.18%
c1ccc(-c2cnc(Nc3ccncc3)c3c2CCO3)cc1 10.6% [at 76.7 µM]
COCCNC(=O)C[C@@H]1C[C@@H](C(C)C)[C@H](CNS(=O)(=O)c2ccc(OC)cc2)C=C1C 0.436%
CN(Cc1ccccc1)C(=O)[C@@H]1Cc2nc[nH]c2CN1 -0.524% [at 76.7 µM]
CN(C)c1cccc(NC(=O)Cc2c[nH]c3ncc(-c4cccnc4)cc23)c1 5.13% [at 57.5 µM]
CNC(=O)C1(N2CCC[C@H]2C(=O)N2CCCC2)COC1 0.305% [at 76.7 µM]
Cc1noc(-c2cn(C3CCN(C(=O)c4ccccc4Cl)C3)nn2)n1 (stereo not given) -1.22%
CC(=O)N1CCN(c2cc(-c3noc([C@@H]4CCCN4Cc4ccccc4C)n3)ccn2)CC1 3.34%
Cc1ccc2oc(C(=O)N(C)Cc3nc(-c4cccnc4)no3)c(C)c2c1 -3.19%
O=C(NCCCn1ccnn1)[C@H]1CNC[C@@H](C(=O)N2CCCC2)C1 -0.274%
CC(=O)c1cc(CC(=O)N2CCC3(CCCN(C(C)C)C3=O)C2)cs1 (stereo not given) 3.7%
CC(C)C[C@@H]1N[C@H](C(=O)O)Cc2cn(CC3CC3)c3cccc1c23 58.8% [at 57.5 µM]
O=c1[nH]c(N2CCOCC2)nc2c1CCN(Cc1ccc(C(F)(F)F)cc1)CC2 3.98%
COc1ccc2nc([C@H]3CCN(C4CCN(C(C)=O)CC4)C3)[nH]c2c1 -2.57% [at 57.5 µM]
CN(CCc1nc2ccc(Cl)cc2[nH]1)c1cc(C2CC(O)C2)nc(N)n1 (stereo not given) -2.51%
OC(c1ccccc1)c1nc(Nc2ccc3c(c2)OCO3)n[nH]1 (stereo not given) 6.75% [at 57.5 µM]
Cc1csc(NC(=O)[C@@H]2CCC[C@@H](NCC3CC3)CN(C)C(=O)C2)n1 2.25% [at 57.5 µM]
Clc1ccccc1C1(c2ccnc(NCCc3cccnc3)n2)CCNCC1 52%
O=C(Nc1cccnc1)c1ccnc(-c2nnc3ccc(N4CCOCC4)nn23)c1 16.9% [at 57.5 µM]
O=C(N[C@@H]1CN(C(=O)Nc2ccccc2)CCC[C@H]1O)c1ccc(OCCN2CCOCC2)cc1 4.48%
COCCOc1ccnc(-c2noc([C@@H]3CCCN3CC3CC3)n2)c1 -6.12% [at 57.5 µM]
O=C(Cc1c[nH]c2ncc(-c3cccnc3)cc12)NCc1ccccc1 2.84% [at 57.5 µM]
Cc1ncc2n1C(=O)N(C1CCN(Cc3cccnc3)CC1)C2 11.4% [at 57.5 µM]
O=c1cc(-c2ccncc2)oc2c(-c3cccc(CO)c3)nccc12 8.35% [at 57.5 µM]
O=C(Nc1cccc(F)c1)N1C[C@@H]2C[C@H](C1)c1c(-c3cc4ccccc4s3)ccc(=O)n1C2 3.89%
CC1=C[C@@H](CO)[C@H](C(C)C)C[C@H]1Cc1nnc(C(C)(C)C)o1 -1.22% [at 57.5 µM]
CC(NC(=O)c1ccc2cccc(F)c2n1)c1ccccc1-n1cccn1 (stereo not given) -0.675%
